The other results are listed elsewhere or left out. Each Rep nickase domain was tested in vitro on the same pool of single strands (3 µM enzyme, 1 h, 37 °C); shown is the middle of each 90-letter strand. Values are log2 of uncut reads against the no-enzyme pool; more negative means more cut, near 0 not cut, and no call is made. Because reads are shares of a total, they shift together; where an enzyme cuts many sequences, the uncut ones exceed 0.
Tests used:
Test in all cases: uncleaved DNA left, log2 of reads against the no-enzyme library (log2 ratio); higher = less cleavage (more negative = more Rep cleavage of the k-mer); sequences stand for … in CTCGTCCG…ACCGGAGA
[1] = test system: T1, Rep nickase domain of Muscovy duck circovirus
T1 sequence (Rep 1-111, printed without the tag): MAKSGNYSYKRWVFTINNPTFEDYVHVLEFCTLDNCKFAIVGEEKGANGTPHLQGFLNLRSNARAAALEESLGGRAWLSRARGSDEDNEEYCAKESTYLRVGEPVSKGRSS
Procedure: (§1)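 A pool of 90-nt single-stranded DNAs with seven random bases just before the constant AC of the nick site (name = the seven bases) was cut by 3 µM recombinant His6-SUMO-tagged Rep nickase domain (300 nM DNA, 50 mM HEPES pH 8.0, 50 mM NaCl, 1 mM MnCl2, 1 h, 37 °C, three replicates). Uncut DNA was amplified and sequenced.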

[2] = test system: T2, Rep nickase domain of banana bunchy top virus
T2 sequence (Rep 1-94, printed without the tag): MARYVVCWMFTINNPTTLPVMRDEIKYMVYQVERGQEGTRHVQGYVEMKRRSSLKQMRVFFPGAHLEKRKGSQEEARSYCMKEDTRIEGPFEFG
Procedure: as §1

[3] = test system: T3, Rep nickase domain of cabbage leaf curl virus
T3 sequence (Rep 1-116, printed without the tag): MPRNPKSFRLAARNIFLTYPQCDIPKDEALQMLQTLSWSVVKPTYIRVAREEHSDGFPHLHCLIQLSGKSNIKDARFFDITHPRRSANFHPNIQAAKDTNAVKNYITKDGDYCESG
Procedure: as §1

[4] = test system: T4, Rep nickase domain of chickpea chlorotic dwarf virus
T4 sequence (Rep 1-124, printed without the tag): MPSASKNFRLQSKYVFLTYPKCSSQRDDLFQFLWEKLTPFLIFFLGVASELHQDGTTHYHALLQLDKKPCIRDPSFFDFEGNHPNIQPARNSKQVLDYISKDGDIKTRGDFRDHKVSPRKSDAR
Procedure: as §1

[5] = test system: T5, Rep nickase domain of faba bean necrotic yellows virus
T5 sequence (Rep 1-98, printed without the tag): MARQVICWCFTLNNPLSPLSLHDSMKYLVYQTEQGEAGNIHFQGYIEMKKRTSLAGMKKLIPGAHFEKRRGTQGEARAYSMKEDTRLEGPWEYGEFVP
Procedure: as §1

[6] = test system: T6, Rep nickase domain of maize striate mosaic virus
T6 sequence (Rep 1-117, printed without the tag): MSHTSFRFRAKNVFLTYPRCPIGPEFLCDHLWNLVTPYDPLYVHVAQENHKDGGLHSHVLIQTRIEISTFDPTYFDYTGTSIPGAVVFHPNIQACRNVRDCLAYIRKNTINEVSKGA
Procedure: as §1

[7] = test system: T7, Rep nickase domain of porcine circovirus 2
T7 sequence (Rep 2-116, printed without the tag): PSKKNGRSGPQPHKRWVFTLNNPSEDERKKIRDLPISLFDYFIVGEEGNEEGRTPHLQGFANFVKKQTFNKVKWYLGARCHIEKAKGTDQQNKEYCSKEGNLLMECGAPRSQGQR
Procedure: as §1

[8] = test system: T8, Rep nickase domain of tomato yellow leaf curl virus
T8 sequence (Rep 1-136, printed without the tag): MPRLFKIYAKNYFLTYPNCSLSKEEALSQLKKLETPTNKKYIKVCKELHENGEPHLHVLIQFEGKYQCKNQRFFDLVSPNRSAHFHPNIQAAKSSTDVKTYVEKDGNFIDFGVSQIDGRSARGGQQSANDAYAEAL
Procedure: as §1

[9] = test system: T9, Rep nickase domain of wheat dwarf virus
T9 sequence (Rep 1-137, printed without the tag): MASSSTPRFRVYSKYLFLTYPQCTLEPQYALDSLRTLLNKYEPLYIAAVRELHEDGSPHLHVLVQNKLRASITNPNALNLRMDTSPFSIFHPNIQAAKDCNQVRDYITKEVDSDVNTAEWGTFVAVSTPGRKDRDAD
Procedure: as §1

Sequence | uncleaved DNA left (log2) [1] | uncleaved DNA left (log2) [2] | uncleaved DNA left (log2) [3] | uncleaved DNA left (log2) [4] | uncleaved DNA left (log2) [5] | uncleaved DNA left (log2) [6] | uncleaved DNA left (log2) [7] | uncleaved DNA left (log2) [8] | uncleaved DNA left (log2) [9]
GTTAGGT | 0.0795 | 0.108 | 0.39 | 1.1 | -0.0659 | 1.77 | 0.0253 | 0.0508 | 0.0148
GTTTGCT | -0.139 | -0.0561 | -0.101 | -0.195 | 0.11 | -0.595 | -0.505 | 0.00734 | -0.00391
ATAGTGA | 0.0149 | -0.0269 | -0.224 | -0.263 | 0.0148 | -0.935 | 0.0834 | 0.0273 | 0.0625
ACGAGTG | -0.0533 | 0.136 | -0.203 | 0.28 | 0.0193 | -0.014 | 0.145 | -0.0673 | -0.0342
GAACCTA | -0.167 | -0.0734 | 0.0266 | -0.918 | -0.158 | 0.798 | -0.444 | -0.0495 | -0.00364
GCACGGT | 0.154 | 0.093 | 0.418 | 0.872 | 0.0815 | 1.19 | 0.125 | 0.00283 | 0.0768
CATTGCA | -0.0631 | -0.0816 | -0.498 | 0.794 | -0.0115 | 0.122 | 0.046 | 0.109 | -0.00274
TACGCTA | -0.0768 | -0.118 | -0.385 | -2.56 | -0.0393 | -0.687 | -0.216 | -0.0532 | -0.133
CGACCAG | 0.0945 | 0.0484 | -0.0351 | 0.312 | -0.0671 | 0.372 | 0.134 | 0.0345 | 0.109
GACGCAG | 0.156 | 0.107 | -0.0516 | 0.062 | 0.0888 | -0.304 | 0.156 | 0.0243 | -0.0494
GAGGAGA | -0.047 | 0.18 | 0.721 | 1.53 | 0.097 | 1.77 | 0.271 | 0.148 | 0.128
GAATCTC | -0.172 | -0.00856 | -2.52 | -2.2 | 0.0663 | 0.289 | -0.615 | 0.0459 | -1.22
CAAAGAA | 0.113 | 0.109 | 0.0976 | -0.313 | 0.109 | -0.577 | 0.295 | 0.0062 | 0.0757
CTGGGAG | 0.00207 | -0.0447 | -0.409 | -0.181 | -0.0592 | -0.836 | 0.161 | 0.0249 | -0.0104
TGATAGC | 0.0258 | -0.0937 | -0.29 | -0.378 | -0.0551 | -0.942 | 0.0408 | -0.0807 | -0.0648
AACGCGG | -0.115 | -0.0672 | 0.0959 | 0.476 | -0.0868 | 0.281 | 0.132 | -0.138 | -0.0135
AATTGTA | -2.93 | -0.932 | -0.608 | -1.82 | 0.0455 | -1.28 | -3.87 | 0.0332 | -0.0656
TGAAGGC | 0.0259 | -0.00755 | 0.222 | 0.254 | 0.116 | -0.356 | 0.13 | 0.107 | 0.0773
ATGGAAA | 0.0722 | 0.0764 | 0.198 | 0.876 | 0.0861 | 0.666 | 0.237 | 0.0462 | -0.00771
CGAGTGG | 0.0924 | 0.158 | 0.0764 | 0.651 | 0.122 | 0.808 | 0.257 | 0.171 | 0.259
TGTGCCC | 0.0338 | -0.0596 | 0.341 | 0.515 | 0.0532 | 0.456 | 0.0163 | 0.0846 | 0.0418
GATGAGT | 0.178 | 0.0929 | -0.00673 | -0.243 | 0.126 | -0.212 | 0.109 | 0.168 | 0.0552
CTAAGTA | 0.101 | 0.0298 | -1.08 | -2.32 | 0.042 | -0.947 | -0.104 | 0.154 | -0.206
CCAATGT | 0.226 | -0.0163 | -0.0804 | -0.473 | 0.0662 | -0.847 | 0.117 | 0.0694 | -0.15
TAATCAG | -0.00339 | -0.0125 | -1.33 | -1.68 | 0.131 | -1.32 | 0.188 | 0.067 | -0.0909
GGTTGCC | -0.0784 | 0.0244 | -0.0738 | 0.312 | -0.181 | -0.0891 | 0.0433 | 0.0872 | -0.0937
CACTGGT | -0.557 | -0.753 | -0.25 | -0.274 | -0.218 | 0.0698 | -3.38 | -0.0485 | -0.175
TTTTAAC | 0.00402 | -0.00372 | 0.0242 | -1.35 | 0.0263 | 0.384 | 0.0454 | 0.00219 | 0.00582
GAGCGAT | 0.0844 | -0.00183 | 0.199 | 0.744 | 0.0395 | 1.23 | -0.105 | 0.0811 | 0.0765
GTATGCT | -0.512 | 0.145 | 0.00818 | 0.247 | 0.011 | 0.328 | -0.43 | 0.116 | 0.13

Reference: the supplement of paper PMC7826260
